# Reference: the supplement of paper PMC8728848
# This is one part of the list.
# B1: Banana lectin (Musa acuminata) (protein)
# chain: MNGAIKVGAWGGNGGSAFDMGPAYRIISVKIFSGDVVDGVDVTFTYYGKTETRHYGGSGGTPHEIVLQEGEYLVGMAGEVANYTGAVVLGKLGFSTNKKAYGPFGNTGGTPFSLPIAAGKISGFFGRGGKFLDAIGVYLEPLEHHHHHH
# What was measured:
# Experiment in all cases: glycan array binding signal (z-score within array); higher = stronger binding
# Settings in all cases: glycan notation: IUPAC condensed, linker removed; mutation: H84T
# [1] = molecular target: Gal(b1-3)GlcNAc(b1-6)GalNAc
# Method in brief: (§1)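 Glycan array data were curated from 3228 arrays in the Consortium for Functional Glycomics database and kept only where the protein sequence was available. Glycan names were converted to IUPAC-condensed notation, and columns mapping to the same glycan were averaged. The binding signal is a within-array Z-score, averaged across arrays of the same protein sequence at different concentrations or buffers and across linkers. Negative Z-scores can be read as non-binding.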
# [2] = molecular target: Gal(b1-3)GlcNAc(b1-6)[Gal(b1-3)]GalNAc
# Method in brief: as §1
# [3] = molecular target: Gal(b1-3)GlcNAc6S
# Method in brief: as §1
# [4] = molecular target: Gal(b1-3)[Fuc(a1-4)]GlcNAc
# Method in brief: as §1
# [5] = molecular target: Gal(b1-3)[Fuc(a1-4)]GlcNAc(b1-2)Man
# Method in brief: as §1
# [6] = molecular target: Gal(b1-3)[Fuc(a1-4)]GlcNAc(b1-2)Man(a1-3)[Gal(b1-3)[Fuc(a1-4)]GlcNAc(b1-2)Man(a1-6)]Man(b1-4)GlcNAc(b1-4)[Fuc(a1-6)]GlcNAc
# Method in brief: as §1
# [7] = molecular target: Gal(b1-3)[Fuc(a1-4)]GlcNAc(b1-3)Gal(b1-3)[Fuc(a1-4)]GlcNAc
# Method in brief: as §1
# [8] = molecular target: Gal(b1-3)[Fuc(a1-4)]GlcNAc(b1-3)Gal(b1-4)[Fuc(a1-3)]GlcNAc
# Method in brief: as §1
# [9] = molecular target: Gal(b1-3)[Fuc(a1-4)]GlcNAc(b1-6)GalNAc
# Method in brief: as §1
# [10] = molecular target: Gal(b1-3)[GlcNAc(b1-6)]GalNAc
# Method in brief: as §1
# [11] = molecular target: Gal(b1-3)[Neu5Ac(a2-6)]GalNAc
# Method in brief: as §1
# [12] = molecular target: Gal(b1-3)[Neu5Ac(a2-6)]GlcNAc(b1-4)Gal(b1-4)Glc
# Method in brief: as §1
# [13] = molecular target: Gal(b1-3)[Neu5Ac(b2-6)]GalNAc
# Method in brief: as §1
# [14] = molecular target: Gal(b1-4)Gal
# Method in brief: as §1
# [15] = molecular target: Gal(b1-4)GalNAc(a1-3)[Fuc(a1-2)]Gal(b1-4)GlcNAc
# Method in brief: as §1
# [16] = molecular target: Gal(b1-4)GalNAc(b1-3)[Fuc(a1-2)]Gal(b1-4)GlcNAc
# Method in brief: as §1
# [17] = molecular target: Gal(b1-4)Glc
# Method in brief: as §1
# [18] = molecular target: Gal(b1-4)Glc6S
# Method in brief: as §1
# [19] = molecular target: Gal(b1-4)GlcNAc
# Method in brief: as §1
# [20] = molecular target: Gal(b1-4)GlcNAc(a1-6)Gal(b1-4)GlcNAc
# Method in brief: as §1
# [21] = molecular target: Gal(b1-4)GlcNAc(b1-2)Man
# Method in brief: as §1
# [22] = molecular target: Gal(b1-4)GlcNAc(b1-2)Man(a1-3)Man(b1-4)GlcNAc(b1-4)GlcNAc
# Method in brief: as §1
# [23] = molecular target: Gal(b1-4)GlcNAc(b1-2)Man(a1-3)[Gal(b1-4)GlcNAc(b1-2)Man(a1-6)]Man(b1-4)GlcNAc(b1-4)GlcNAc
# Method in brief: as §1
# [24] = molecular target: Gal(b1-4)GlcNAc(b1-2)Man(a1-3)[Gal(b1-4)GlcNAc(b1-2)Man(a1-6)]Man(b1-4)GlcNAc(b1-4)[Fuc(a1-6)]GlcNAc
# Method in brief: as §1
# [25] = molecular target: Gal(b1-4)GlcNAc(b1-2)Man(a1-3)[Gal(b1-4)GlcNAc(b1-2)Man(a1-6)][Gal(b1-4)GlcNAc(b1-4)]Man(b1-4)GlcNAc(b1-4)[Fuc(a1-6)]GlcNAc
# Method in brief: as §1
# [26] = molecular target: Gal(b1-4)GlcNAc(b1-2)Man(a1-3)[Gal(b1-4)GlcNAc(b1-2)Man(a1-6)][GlcNAc(b1-4)]Man(b1-4)GlcNAc(b1-4)[Fuc(a1-6)]GlcNAc
# Method in brief: as §1
# [27] = molecular target: Gal(b1-4)GlcNAc(b1-2)Man(a1-3)[GlcNAc(b1-2)Man(a1-6)]Man(b1-4)GlcNAc(b1-4)GlcNAc
# Method in brief: as §1
# [28] = molecular target: Gal(b1-4)GlcNAc(b1-2)Man(a1-3)[GlcNAc(b1-4)][Gal(b1-4)GlcNAc(b1-2)Man(a1-6)]Man(b1-4)GlcNAc(b1-4)GlcNAc
# Method in brief: as §1
# [29] = molecular target: Gal(b1-4)GlcNAc(b1-2)Man(a1-3)[Man(a1-6)]Man(b1-4)GlcNAc(b1-4)GlcNAc
# Method in brief: as §1
# [30] = molecular target: Gal(b1-4)GlcNAc(b1-2)Man(a1-6)Man(b1-4)GlcNAc(b1-4)GlcNAc
# Method in brief: as §1
# [31] = molecular target: Gal(b1-4)GlcNAc(b1-2)Man(a1-6)[GlcNAc(b1-2)Man(a1-3)]Man(b1-4)GlcNAc(b1-4)GlcNAc
# Method in brief: as §1
# [32] = molecular target: Gal(b1-4)GlcNAc(b1-2)Man(a1-6)[Man(a1-3)]Man(b1-4)GlcNAc(b1-4)GlcNAc
# Method in brief: as §1
# [33] = molecular target: Gal(b1-4)GlcNAc(b1-2)[Gal(b1-4)GlcNAc(b1-4)]Man(a1-3)[Gal(b1-4)GlcNAc(b1-2)Man(a1-6)]Man(b1-4)GlcNAc(b1-4)GlcNAc
# Method in brief: as §1
# [34] = molecular target: Gal(b1-4)GlcNAc(b1-2)[Gal(b1-4)GlcNAc(b1-4)]Man(a1-3)[Gal(b1-4)GlcNAc(b1-2)[Gal(b1-4)GlcNAc(b1-6)]Man(a1-6)]Man(b1-4)GlcNAc(b1-4)GlcNAc
# Method in brief: as §1
# [35] = molecular target: Gal(b1-4)GlcNAc(b1-2)[Gal(b1-4)GlcNAc(b1-4)]Man(a1-3)[GlcNAc(b1-4)][Gal(b1-4)GlcNAc(b1-2)Man(a1-6)]Man(b1-4)GlcNAc(b1-4)GlcNAc
# Method in brief: as §1
# [36] = molecular target: Gal(b1-4)GlcNAc(b1-2)[Gal(b1-4)GlcNAc(b1-4)]Man(a1-3)[GlcNAc(b1-4)][Gal(b1-4)GlcNAc(b1-2)[Gal(b1-4)GlcNAc(b1-6)]Man(a1-6)]Man(b1-4)GlcNAc(b1-4)GlcNAc
# Method in brief: as §1
# [37] = molecular target: Gal(b1-4)GlcNAc(b1-2)[Gal(b1-4)GlcNAc(b1-6)]Man(a1-6)[Gal(b1-4)GlcNAc(b1-2)Man(a1-3)]Man(b1-4)GlcNAc(b1-4)GlcNAc
# Method in brief: as §1
# [38] = molecular target: Gal(b1-4)GlcNAc(b1-2)[Gal(b1-4)GlcNAc(b1-6)]Man(a1-6)[Gal(b1-4)GlcNAc(b1-2)Man(a1-3)]Man(b1-4)GlcNAc(b1-4)[Fuc(a1-6)]GlcNAc
# Method in brief: as §1
# [39] = molecular target: Gal(b1-4)GlcNAc(b1-2)[Gal(b1-4)GlcNAc(b1-6)]Man(a1-6)[GlcNAc(b1-4)][Gal(b1-4)GlcNAc(b1-2)Man(a1-3)]Man(b1-4)GlcNAc(b1-4)GlcNAc
# Method in brief: as §1
# [40] = molecular target: Gal(b1-4)GlcNAc(b1-2)[Gal(b1-4)GlcNAc(b1-6)]Man(a1-6)[GlcNAc(b1-4)][Gal(b1-4)GlcNAc(b1-2)[Gal(b1-4)GlcNAc(b1-4)]Man(a1-3)]Man(b1-4)GlcNAc(b1-4)[Fuc(a1-6)]GlcNAc
# Method in brief: as §1
# [41] = molecular target: Gal(b1-4)GlcNAc(b1-3)Gal(b1-3)GalNAc
# Method in brief: as §1
# [42] = molecular target: Gal(b1-4)GlcNAc(b1-3)Gal(b1-3)GlcNAc
# Method in brief: as §1
# [43] = molecular target: Gal(b1-4)GlcNAc(b1-3)Gal(b1-4)Glc
# Method in brief: as §1
# [44] = molecular target: Gal(b1-4)GlcNAc(b1-3)Gal(b1-4)GlcNAc
# Method in brief: as §1
# [45] = molecular target: Gal(b1-4)GlcNAc(b1-3)Gal(b1-4)GlcNAc(b1-2)Man(a1-3)[Gal(b1-4)GlcNAc(b1-3)Gal(b1-4)GlcNAc(b1-2)Man(a1-6)]Man(b1-4)GlcNAc(b1-4)GlcNAc
# Method in brief: as §1
binder,measurement,setting,value
B1,glycan array binding signal (z-score),[1],-0.155
same,glycan array binding signal (z-score),[2],-0.117
same,glycan array binding signal (z-score),[3],-0.154
same,glycan array binding signal (z-score),[4],-0.181
same,glycan array binding signal (z-score),[5],-0.197
same,glycan array binding signal (z-score),[6],-0.193
same,glycan array binding signal (z-score),[7],-0.197
same,glycan array binding signal (z-score),[8],-0.174
same,glycan array binding signal (z-score),[9],-0.18
same,glycan array binding signal (z-score),[10],-0.172
same,glycan array binding signal (z-score),[11],-0.154
same,glycan array binding signal (z-score),[12],-0.19
same,glycan array binding signal (z-score),[13],-0.186
same,glycan array binding signal (z-score),[14],-0.186
same,glycan array binding signal (z-score),[15],-0.173
same,glycan array binding signal (z-score),[16],-0.137
same,glycan array binding signal (z-score),[17],-0.156
same,glycan array binding signal (z-score),[18],-0.165
same,glycan array binding signal (z-score),[19],-0.179
same,glycan array binding signal (z-score),[20],-0.202
same,glycan array binding signal (z-score),[21],-0.134
same,glycan array binding signal (z-score),[22],-0.168
same,glycan array binding signal (z-score),[23],-0.176
same,glycan array binding signal (z-score),[24],-0.167
same,glycan array binding signal (z-score),[25],-0.206
same,glycan array binding signal (z-score),[26],-0.193
same,glycan array binding signal (z-score),[27],-0.189
same,glycan array binding signal (z-score),[28],-0.187
same,glycan array binding signal (z-score),[29],-0.155
same,glycan array binding signal (z-score),[30],-0.181
same,glycan array binding signal (z-score),[31],-0.123
same,glycan array binding signal (z-score),[32],1.66
same,glycan array binding signal (z-score),[33],-0.139
same,glycan array binding signal (z-score),[34],-0.116
same,glycan array binding signal (z-score),[35],-0.143
same,glycan array binding signal (z-score),[36],-0.175
same,glycan array binding signal (z-score),[37],-0.198
same,glycan array binding signal (z-score),[38],-0.063
same,glycan array binding signal (z-score),[39],-0.098
same,glycan array binding signal (z-score),[40],-0.145
same,glycan array binding signal (z-score),[41],-0.181
same,glycan array binding signal (z-score),[42],-0.173
same,glycan array binding signal (z-score),[43],-0.169
same,glycan array binding signal (z-score),[44],-0.169
same,glycan array binding signal (z-score),[45],-0.136
